# Measured values reported in the supplement of paper PMC9151546.
# Most values come without repeats; read them as rough.
# What was measured:
# CHO-K1 [1] = assay: micronucleus frequency (% of nucleated events); higher = more micronuclei (genotoxic)
# CHO-K1 [2] = assay: hypodiploid nuclei frequency (% of nucleated events); higher = more hypodiploid events (aneugenic)
# CHO-K1 [3] = assay: relative survival (nuclei to bead ratio vs DMSO control) (% of vehicle control); higher = more surviving cells
# [4] = concentration: 4.55 (µM), S9 metabolic activation: with S9, exposure time: 3-4 hours
# [5] = concentration: 4.55 (µM), S9 metabolic activation: without S9, exposure time: 24 hours
# [6] = concentration: 5.69 (µM), S9 metabolic activation: with S9, exposure time: 3-4 hours
# [7] = concentration: 5.69 (µM), S9 metabolic activation: without S9, exposure time: 24 hours
# [8] = concentration: 7.11 (µM), S9 metabolic activation: with S9, exposure time: 3-4 hours
# [9] = concentration: 7.11 (µM), S9 metabolic activation: without S9, exposure time: 24 hours
# [10] = concentration: 8.88 (µM), S9 metabolic activation: with S9, exposure time: 3-4 hours
# [11] = concentration: 8.88 (µM), S9 metabolic activation: without S9, exposure time: 24 hours
# [12] = concentration: 11.1 (µM), S9 metabolic activation: with S9, exposure time: 3-4 hours
# [13] = concentration: 11.1 (µM), S9 metabolic activation: without S9, exposure time: 24 hours
# [14] = concentration: 13.9 (µM), S9 metabolic activation: with S9, exposure time: 3-4 hours
# [15] = concentration: 13.9 (µM), S9 metabolic activation: without S9, exposure time: 24 hours
# [16] = concentration: 17.4 (µM), S9 metabolic activation: with S9, exposure time: 3-4 hours
# [17] = concentration: 17.4 (µM), S9 metabolic activation: without S9, exposure time: 24 hours
# [18] = concentration: 21.7 (µM), S9 metabolic activation: with S9, exposure time: 3-4 hours
# [19] = concentration: 21.7 (µM), S9 metabolic activation: without S9, exposure time: 24 hours
# [20] = concentration: 27.1 (µM), S9 metabolic activation: with S9, exposure time: 3-4 hours
# [21] = concentration: 27.1 (µM), S9 metabolic activation: without S9, exposure time: 24 hours
# [22] = concentration: 33.9 (µM), S9 metabolic activation: with S9, exposure time: 3-4 hours
# [23] = concentration: 33.9 (µM), S9 metabolic activation: without S9, exposure time: 24 hours
# [24] = concentration: 42.4 (µM), S9 metabolic activation: with S9, exposure time: 3-4 hours
# [25] = concentration: 42.4 (µM), S9 metabolic activation: without S9, exposure time: 24 hours
# [26] = concentration: 53 (µM), S9 metabolic activation: with S9, exposure time: 3-4 hours
# [27] = concentration: 53 (µM), S9 metabolic activation: without S9, exposure time: 24 hours
# [28] = concentration: 66.2 (µM), S9 metabolic activation: with S9, exposure time: 3-4 hours
# [29] = concentration: 66.2 (µM), S9 metabolic activation: without S9, exposure time: 24 hours
# [30] = concentration: 82.7 (µM), S9 metabolic activation: with S9, exposure time: 3-4 hours
# [31] = concentration: 82.7 (µM), S9 metabolic activation: without S9, exposure time: 24 hours
# [32] = concentration: 103 (µM), S9 metabolic activation: with S9, exposure time: 3-4 hours
# [33] = concentration: 103 (µM), S9 metabolic activation: without S9, exposure time: 24 hours
# [34] = concentration: 129 (µM), S9 metabolic activation: with S9, exposure time: 3-4 hours
# [35] = concentration: 129 (µM), S9 metabolic activation: without S9, exposure time: 24 hours
# [36] = concentration: 162 (µM), S9 metabolic activation: with S9, exposure time: 3-4 hours
# [37] = concentration: 162 (µM), S9 metabolic activation: without S9, exposure time: 24 hours
# [38] = concentration: 202 (µM), S9 metabolic activation: with S9, exposure time: 3-4 hours
# [39] = concentration: 202 (µM), S9 metabolic activation: without S9, exposure time: 24 hours
# 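Wherever hypodiploid nuclei frequency (% of nucleated events) is given: hypodiploid nuclei gated on a flow cytometer with 488 nm excitation after SYTOX Green staining, cultures at 37 °C, positive controls vinblastine without S9 and cyclophosphamide with S9.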
# 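Wherever micronucleus frequency (% of nucleated events) is given: cells lysed with nuclei stained by SYTOX Green, then micronucleus-gated events counted against nucleated events by flow cytometry with 488 nm excitation.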
# 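Wherever relative survival (nuclei to bead ratio vs DMSO control) is given: Lysed-cell nuclei stained with SYTOX Green and counted against counting beads by flow cytometry at 488 nm excitation, with vinblastine (no S9) and cyclophosphamide (plus S9) as positive controls.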
smiles,measurement,setting,value
Oc1ccccc1 [Phenol],micronucleus frequency,CHO-K1 [1]; [4],1.02%
same,micronucleus frequency,CHO-K1 [1]; [5],1.38%
same,micronucleus frequency,CHO-K1 [1]; [6],0.88%
same,micronucleus frequency,CHO-K1 [1]; [7],1.34%
same,micronucleus frequency,CHO-K1 [1]; [8],0.9%
same,micronucleus frequency,CHO-K1 [1]; [9],1.16%
same,micronucleus frequency,CHO-K1 [1]; [10],1.04%
same,micronucleus frequency,CHO-K1 [1]; [11],1.06%
same,micronucleus frequency,CHO-K1 [1]; [12],0.96%
same,micronucleus frequency,CHO-K1 [1]; [13],1.16%
same,micronucleus frequency,CHO-K1 [1]; [14],1.14%
same,micronucleus frequency,CHO-K1 [1]; [15],1.32%
same,micronucleus frequency,CHO-K1 [1]; [16],1.04%
same,micronucleus frequency,CHO-K1 [1]; [17],1.34%
same,micronucleus frequency,CHO-K1 [1]; [18],0.82%
same,micronucleus frequency,CHO-K1 [1]; [19],1.18%
same,micronucleus frequency,CHO-K1 [1]; [20],0.7%
same,micronucleus frequency,CHO-K1 [1]; [21],1.52%
same,micronucleus frequency,CHO-K1 [1]; [22],0.8%
same,micronucleus frequency,CHO-K1 [1]; [23],1.24%
same,micronucleus frequency,CHO-K1 [1]; [24],1.12%
same,micronucleus frequency,CHO-K1 [1]; [25],1.24%
same,micronucleus frequency,CHO-K1 [1]; [26],0.66%
same,micronucleus frequency,CHO-K1 [1]; [27],1.06%
same,micronucleus frequency,CHO-K1 [1]; [28],0.94%
same,micronucleus frequency,CHO-K1 [1]; [29],1.52%
same,micronucleus frequency,CHO-K1 [1]; [30],0.96%
same,micronucleus frequency,CHO-K1 [1]; [31],1.5%
same,micronucleus frequency,CHO-K1 [1]; [32],1%
same,micronucleus frequency,CHO-K1 [1]; [33],1.9%
same,micronucleus frequency,CHO-K1 [1]; [34],0.98%
same,micronucleus frequency,CHO-K1 [1]; [35],1.7%
same,micronucleus frequency,CHO-K1 [1]; [36],1.1%
same,micronucleus frequency,CHO-K1 [1]; [37],1.74%
same,micronucleus frequency,CHO-K1 [1]; [38],1.1%
same,micronucleus frequency,CHO-K1 [1]; [39],2.28%
same,hypodiploid nuclei frequency,CHO-K1 [2]; [4],0.16%
same,hypodiploid nuclei frequency,CHO-K1 [2]; [5],0.5%
same,hypodiploid nuclei frequency,CHO-K1 [2]; [6],0.18%
same,hypodiploid nuclei frequency,CHO-K1 [2]; [7],0.78%
same,hypodiploid nuclei frequency,CHO-K1 [2]; [8],0.12%
same,hypodiploid nuclei frequency,CHO-K1 [2]; [9],0.58%
same,hypodiploid nuclei frequency,CHO-K1 [2]; [10],0.22%
same,hypodiploid nuclei frequency,CHO-K1 [2]; [11],0.88%
same,hypodiploid nuclei frequency,CHO-K1 [2]; [12],0.22%
same,hypodiploid nuclei frequency,CHO-K1 [2]; [13],0.96%
same,hypodiploid nuclei frequency,CHO-K1 [2]; [14],0.28%
same,hypodiploid nuclei frequency,CHO-K1 [2]; [15],1.2%
same,hypodiploid nuclei frequency,CHO-K1 [2]; [16],0.38%
same,hypodiploid nuclei frequency,CHO-K1 [2]; [17],1.18%
same,hypodiploid nuclei frequency,CHO-K1 [2]; [18],0.34%
same,hypodiploid nuclei frequency,CHO-K1 [2]; [19],1.4%
same,hypodiploid nuclei frequency,CHO-K1 [2]; [20],0.28%
same,hypodiploid nuclei frequency,CHO-K1 [2]; [21],0.74%
same,hypodiploid nuclei frequency,CHO-K1 [2]; [22],0.24%
same,hypodiploid nuclei frequency,CHO-K1 [2]; [23],1%
same,hypodiploid nuclei frequency,CHO-K1 [2]; [24],0.4%
same,hypodiploid nuclei frequency,CHO-K1 [2]; [25],0.98%
same,hypodiploid nuclei frequency,CHO-K1 [2]; [26],0.32%
same,hypodiploid nuclei frequency,CHO-K1 [2]; [27],1.02%
same,hypodiploid nuclei frequency,CHO-K1 [2]; [28],0.28%
same,hypodiploid nuclei frequency,CHO-K1 [2]; [29],0.88%
same,hypodiploid nuclei frequency,CHO-K1 [2]; [30],0.18%
same,hypodiploid nuclei frequency,CHO-K1 [2]; [31],1.28%
same,hypodiploid nuclei frequency,CHO-K1 [2]; [32],0.14%
same,hypodiploid nuclei frequency,CHO-K1 [2]; [33],1.3%
same,hypodiploid nuclei frequency,CHO-K1 [2]; [34],0.24%
same,hypodiploid nuclei frequency,CHO-K1 [2]; [35],1.42%
same,hypodiploid nuclei frequency,CHO-K1 [2]; [36],0.34%
same,hypodiploid nuclei frequency,CHO-K1 [2]; [37],1.58%
same,hypodiploid nuclei frequency,CHO-K1 [2]; [38],0.14%
same,hypodiploid nuclei frequency,CHO-K1 [2]; [39],1.64%
same,relative survival,CHO-K1 [3]; [4],127
same,relative survival,CHO-K1 [3]; [5],119
same,relative survival,CHO-K1 [3]; [6],104
same,relative survival,CHO-K1 [3]; [7],121
same,relative survival,CHO-K1 [3]; [8],120
same,relative survival,CHO-K1 [3]; [9],112
same,relative survival,CHO-K1 [3]; [10],122
same,relative survival,CHO-K1 [3]; [11],113
same,relative survival,CHO-K1 [3]; [12],123
same,relative survival,CHO-K1 [3]; [13],104
same,relative survival,CHO-K1 [3]; [14],113
same,relative survival,CHO-K1 [3]; [15],107
same,relative survival,CHO-K1 [3]; [16],110
same,relative survival,CHO-K1 [3]; [17],110
same,relative survival,CHO-K1 [3]; [18],112
same,relative survival,CHO-K1 [3]; [19],108
same,relative survival,CHO-K1 [3]; [20],101
same,relative survival,CHO-K1 [3]; [21],100
same,relative survival,CHO-K1 [3]; [22],105
same,relative survival,CHO-K1 [3]; [23],125
same,relative survival,CHO-K1 [3]; [24],136
same,relative survival,CHO-K1 [3]; [25],117
same,relative survival,CHO-K1 [3]; [26],105
same,relative survival,CHO-K1 [3]; [27],108
same,relative survival,CHO-K1 [3]; [28],102
same,relative survival,CHO-K1 [3]; [29],115
same,relative survival,CHO-K1 [3]; [30],93.4
same,relative survival,CHO-K1 [3]; [31],98
same,relative survival,CHO-K1 [3]; [32],109
same,relative survival,CHO-K1 [3]; [33],93
same,relative survival,CHO-K1 [3]; [34],106
same,relative survival,CHO-K1 [3]; [35],126
same,relative survival,CHO-K1 [3]; [36],116
same,relative survival,CHO-K1 [3]; [37],101
same,relative survival,CHO-K1 [3]; [38],90
same,relative survival,CHO-K1 [3]; [39],89.5
